Laboratory results reported in PubChem BioAssay AID686978 (National Center for Advancing Translational Sciences (NCATS), 2013).
Several values for one entry are separate records, joined by “and”; a condition that tells them apart may be missing. Identical values can stand only once. Hit rate of the full screen: of about 420,000 compounds, about 64,000 (15%) were called active. This list was built around the results that the source calls inconclusive (neither active nor inactive); the mix of calls is not that of the screen. Calls follow the shape of the dose curve; as a rule, active = well fitted inhibition curve with a large enough effect; inconclusive = small, poorly fitted or top-dose-only effect; inactive = flat fitted curve, though single readings scatter. Where the call is inconclusive, the potency comes from a doubtful curve fit.

experiment: qHTS for Inhibitors of human tyrosyl-DNA phosphodiesterase 1 (TDP1): qHTS in cells in absence of CPT; settings: DT40 Tdp1-/- hTDP1 cells, no CPT, ATP luminescence, 48 h; activity change, negative = growth inhibition: at 46.2 µM (top of the series) unless noted; also: nearly all actives have a fitted effect of over 55% in size
In short: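 Chicken DT40 Tdp1-/- cells complemented with human TDP1, screened without camptothecin (DMSO vehicle only), 400 cells/well. Compounds pin-transferred, cells incubated at 37 °C for at least 48 hr. Growth read as ATP-dependent luminescence (CellTiter-Glo, 30 min at RT).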
% is scaled to controls: 0 for no effect and ±100 for the full control effect; potency is read from the fitted curve at half-maximal effect; tags tell the direction and shape of the fitted curve.

Row | Structure (SMILES) | Potency | activity change, negative = growth inhibition
1 | CCOC(=O)c1c(-c2ccccc2)nc2cc(C)ccn12 | inconclusive: 29.1 µM [inhibitor, single point] | –
2 | COc1ccc(NC(=O)COC(=O)c2ccc(C)c(S(=O)(=O)N3CCCCC3)c2)cc1 | inconclusive: 10.3 µM [inhibitor, partial curve] | –
3 | Cc1ccc(NC(=O)C2OCCc3ccccc32)cc1Cl (configuration not stated) | inconclusive: 16.4 µM [inhibitor, single point] | –
4 | COc1ccc(NC(=O)C2=C(C)Nc3ncnn3C2c2cccn2C)cc1 (configuration not stated) | inactive | –
5 | CN(CC(=O)Nc1ccccc1Cl)C(=O)Cn1cc(C(F)(F)F)cc(Cl)c1=O | inactive | –
6 | Fc1cccc(-c2nnn3c2nc(NC2CCCCC2)c2ccccc23)c1 | active: 25.9 µM | –
7 | CC1=NN(C(=O)c2ccccc2Br)C(O)(c2cccnc2)C1 (configuration not stated) | inactive | –
8 | Cc1ccc(C(=O)NC(=S)NNS(=O)(=O)c2ccc(C)cc2)cc1 | inactive | –
9 | CC(C)CC(c1nnnn1C1CCCC1)N1CCN(c2ccccc2F)CC1 (configuration not stated) | inconclusive: 29.1 µM [inhibitor, single point] | –
10 | Cc1ccc(OCC(=O)N2CCCC(CO)(CCOc3ccccc3)C2)cc1 (configuration not stated) | inconclusive: 16.4 µM [inhibitor, single point] | –
11 | CCNC(=S)/N=C(\N)Nc1nc(C)c2cc(C)ccc2n1 | inconclusive: 29.1 µM [inhibitor, single point] | –
12 | CC(C)Oc1ccc(S(=O)(=O)N2CCOCC2)cc1NC(=O)c1cccc(S(=O)(=O)N2CCCC2)c1 | inactive | –
13 | Cc1cccc(-n2c(CNC(=O)c3cccc(F)c3)nnc2SCC(=O)Nc2ccccc2F)c1 | inconclusive: 14.6 µM [inhibitor, partial curve, poor fit] | –
14 | CC1CCN(CC2CCN(C(=O)Nc3ccc(Br)cc3F)CC2)CC1 | inactive | –
15 | COc1cccc(OCCOc2ccc(/C=C3/SC(=S)NC3=O)cc2)c1 | inactive | –
16 | CC(=O)N1CCN(C2=Nc3cccc4cccc2c34)CC1 | inactive | –
17 | Cc1ccc(-c2ccc(CN3C(CC(C)C)C(=O)N(Cc4cn(Cc5ccco5)nn4)CCS3(=O)=O)cc2)cc1 (configuration not stated) | inconclusive: 29.1 µM [inhibitor, single point] | –
18 | Cc1nnc(C)c2c(C)n(-c3ccc(Cl)c(N)c3)c(C)c12 | inconclusive: 13 µM [inhibitor, partial curve] | –
19 | CS(=O)(=O)c1ccc(Cl)c(NC(=O)C2CCCN(C(=O)c3ccc(Cl)cc3)C2)c1 (configuration not stated) | inactive | –
20 | COc1ccc(CCNC(=O)Cc2cccc(C(F)(F)F)c2)cc1OC | inconclusive: 9.2 µM [inhibitor, partial curve, poor fit] | –
21 | CC(=O)C1CCC2C3CC=C4CC(SC(=N)N)CCC4(C)C3CCC12C (configuration not stated) | active: 8.2 µM | –
22 | Brc1ccc(-c2csc(-c3c[nH]c4ccccc34)n2)cc1 | inconclusive: 29.1 µM [inhibitor, single point] | –
23 | O=S(=O)([N-]c1nc2ccccc2nc1-[n+]1ccc(-c2ccncc2)cc1)c1ccccc1 | inactive | –
24 | Cc1cc(=O)[nH]c2c1c(C)nn2C1CCCCC1 | inactive | –

Row | Structure (SMILES) | Potency | activity change, negative = growth inhibition
25 | O=C(C1CCN(S(=O)(=O)Cc2ccccc2)CC1)N1CCN(c2cccc(C(F)(F)F)c2)CC1 | – | inconclusive: -30.3% [inhibitor]
26 | CCN(CC)CCCNC(=O)c1nn2c(C(F)(F)F)cc(-c3ccccc3)nc2c1Cl | inconclusive: 29.1 µM [inhibitor, single point] | –
27 | O=C(CNC(=O)c1cc2c(s1)CCC2)Nc1ccccc1Br | inactive | –
28 | CCN(C(=O)COC(=O)c1ccc(C=O)cc1)c1c(N)n(Cc2ccccc2)c(=O)[nH]c1=O | inactive | –
29 | Cc1noc(C)c1S(=O)(=O)N(CC(=O)NCCc1ccccc1)c1ccc(C(C)C)cc1 | inconclusive: 25.9 µM [inhibitor, single point] | –
30 | CC1=C(C(=O)c2ccccc2)C(c2ccc(N3CCOCC3)cc2)NC(=O)N1 (configuration not stated) | inconclusive: 16.4 µM [inhibitor, partial curve] | –
31 | Cc1ccc(-c2ccc(SCC(=O)c3ccccc3)nn2)cc1 | – | inconclusive: -31.4% [inhibitor]
32 | CCOC(=O)c1c(NC(=O)c2ccc(S(=O)(=O)N(C)C3CCCCC3)cc2)sc2c1CCN(C(C)C)C2 | active: 7.31 µM | –
33 | COC(=O)C1=C(C)NC(C)=C(C(=O)OC)C1c1ccccc1OCc1c(C)no[n+]1[O-] | inconclusive: 29.1 µM [inhibitor, single point] | –
34 | COc1ccc(/C=N/NC(=O)c2cccnc2)cc1COc1ccc([N+](=O)[O-])cc1 | active: 2.59 µM | –
35 | CCCCNc1cc(F)nc(N)n1 | inactive | –
36 | O=C(O)c1ccc(N/N=C/C(Br)=C/c2ccccc2)cc1 | active: 7.31 µM | –
37 | COc1ccc(Cl)cc1NC(=S)NCCC(c1ccccc1)c1ccccc1 | active: 23.1 µM | –
38 | CCCCCN(C(=O)CCC(=O)OCC(=O)c1ccc(C(C)CC)cc1)c1c(N)n(CCCC)c(=O)[nH]c1=O (configuration not stated) | inconclusive: 29.1 µM [inhibitor, single point] | –
39 | CN1CCN(C(=S)NC(=O)c2ccco2)CC1 | inactive | –
40 | O=C(Cc1ccc([N+](=O)[O-])cc1)N1N=C2CCCCC2C1(O)C(F)(F)F (configuration not stated) | inconclusive: 29.1 µM [inhibitor, single point] | –
41 | COc1ccc(Cc2cnc(N)nc2N)cc1OC | inconclusive: 35.5 µM [inhibitor, single point] and inconclusive: 26.6 µM [inhibitor, single point] | –
42 | Cc1cc2ncn(C(=O)c3c(-c4ccccc4)noc3C)c2cc1C | inactive | –
43 | CCOc1ccc(-c2nnc3ccc(SCc4ccc(C(=O)OC)o4)nn23)cc1 | active: 15.8 µM | –
44 | Cc1ccc(C)c(NC(=S)NC(NC(=O)/C=C/c2ccccc2)C(Cl)(Cl)Cl)c1 (configuration not stated) | active: 23.1 µM | –
45 | CCOC(=O)[C@H]1[C@H]2COc3ccccc3[C@@H]2N2C(=O)c3c(C)cc(C)cc3NC(=O)[C@@]12C | inconclusive: 29.1 µM [inhibitor, single point] | –
46 | BrC(/C=N/Nc1nc(N2CCOCC2)nc(N2CCOCC2)n1)=C/c1ccccc1 | active: 20.6 µM | –
47 | COCCNc1ncnc2ccc(-c3cccnc3)cc12 | inconclusive: 29.1 µM [inhibitor, single point] | –
